In the supplement of paper PMC10369915 one finds enrichment score data, which are given here for 18 molecules.

Some of the results follow. Rule as the data show it: active = 3.2 or more and inactive = the rest. Most of these values are background signal.
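Also: displayed peptides selected on beads carrying the immobilized SH2 domain, with library peptides lacking any tyrosine serving as negative controls.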

One test has as its target SHP2 C-SH2 domain E139D. Briefly: enrichment score (SH2-bound / input frequency) (ratio); bacterial display of known human phosphotyrosine sites (pTyr-Var adds point mutants) read by sequencing; higher = stronger binding; tyrosines were phosphorylated by kinases first. Particulars: peptide library: pTyr-Var.
For the molecule STFVPYEIKVQ [L1CAM_Y784], the enrichment score was inactive: 0.923.
For TQTPPYVKKHR [LARP1B_Y457_P462R], the enrichment score was inactive: 1.05.
Same read-out and setting: the same measure for LLANAYIYVVQ [L1CAM_Y418]: inactive: 1.34; for RLEPVYFVAPA [LAMC2_Y250_D247E]: inactive: 0.942; for RMLREYQELMS [KRT74_Y425]: inactive: 0.911.
Consider DRLASYLDKVP [KRT14_Y129_R134P], for which the enrichment score was inactive: 0.832.
EAESWYQTKYE [KRT75_Y342]: the enrichment score is inactive: 0.822.
On to GGMTEYELVVV [KRAS_Y4_K5E], for which the enrichment score is inactive: 0.929.
With LKYAIYFEARE [LAMA2_Y1258], the enrichment score was inactive: 1.22.
On to LKFAIYFEARE [LAMA2_Y1258_YF], for which the enrichment score was inactive: 1.49.
Consider EKKQTYGSCRK [LACTB_Y473_R469K], for which the enrichment score was inactive: 1.24.
In the case of QEIATCRRLLE [KRT14_Y415_Y415C], the enrichment score was inactive: 0.419.
In the case of LESETYRRLLD [KRT12_Y429_I426S], the enrichment score was inactive: 0.52.
Consider TMEDSYRKQVV [KRAS_Y40_I36M], for which the enrichment score is inactive: 1.04.
Turning to AYGGGYGGVLT [KRT19_Y65], the enrichment score is inactive: 0.617.
As to LLANAYIYDVQ [L1CAM_Y418_V421D], the enrichment score was inactive: 1.07.
Still for that read-out and setting: for SSSGAYGGGYG [KRT19_Y61] the value was inactive: 0.46; for TGQEEYSAMRD [KRAS_Y64_A59T], inactive: 0.412.

The target of the next test is SHP2 C-SH2 domain wild-type. The description is as above. The settings on record: peptide library: pTyr-Var.
For the molecule STFVPYEIKVQ [L1CAM_Y784], the enrichment score was inactive: 1.
On to TQTPPYVKKHR [LARP1B_Y457_P462R], for which the enrichment score was inactive: 0.903.
For the molecule LLANAYIYVVQ [L1CAM_Y418], the enrichment score was inactive: 1.55.
Consider RLEPVYFVAPA [LAMC2_Y250_D247E], for which the enrichment score was inactive: 1.04.
With RMLREYQELMS [KRT74_Y425], the enrichment score is inactive: 0.728.
Regarding DRLASYLDKVP [KRT14_Y129_R134P], the enrichment score was inactive: 0.732.
With EAESWYQTKYE [KRT75_Y342], the enrichment score is inactive: 0.778.
Same read-out and setting: the same measure for GGMTEYELVVV [KRAS_Y4_K5E]: inactive: 0.754; for LKYAIYFEARE [LAMA2_Y1258]: inactive: 1.37.
For the molecule LKFAIYFEARE [LAMA2_Y1258_YF], the enrichment score is inactive: 2.37.
Consider EKKQTYGSCRK [LACTB_Y473_R469K], for which the enrichment score was inactive: 1.29.
Turning to QEIATCRRLLE [KRT14_Y415_Y415C], the enrichment score is inactive: 0.387.
Consider LESETYRRLLD [KRT12_Y429_I426S], for which the enrichment score is inactive: 0.873.
For the molecule TMEDSYRKQVV [KRAS_Y40_I36M], the enrichment score is inactive: 0.539.
In the case of AYGGGYGGVLT [KRT19_Y65], the enrichment score is inactive: 0.706.
With LLANAYIYDVQ [L1CAM_Y418_V421D], the enrichment score was inactive: 1.6.
Same read-out and setting: the same measure for SSSGAYGGGYG [KRT19_Y61]: inactive: 0.467; for TGQEEYSAMRD [KRAS_Y64_A59T]: inactive: 0.438.

The next test has as its target SHP2 N-SH2 domain L43F. Described as above. Particulars: peptide library: pTyr-Var.
For the molecule STFVPYEIKVQ [L1CAM_Y784], the enrichment score is inactive: 1.08.
Consider TQTPPYVKKHR [LARP1B_Y457_P462R], for which the enrichment score is inactive: 1.11.
Consider LLANAYIYVVQ [L1CAM_Y418], for which the enrichment score was inactive: 1.31.
As to RLEPVYFVAPA [LAMC2_Y250_D247E], the enrichment score was inactive: 0.997.
Regarding RMLREYQELMS [KRT74_Y425], the enrichment score is inactive: 0.703.
For the molecule DRLASYLDKVP [KRT14_Y129_R134P], the enrichment score was inactive: 1.04.
For EAESWYQTKYE [KRT75_Y342], the enrichment score is inactive: 0.843.
As to GGMTEYELVVV [KRAS_Y4_K5E], the enrichment score is inactive: 0.85.
For LKYAIYFEARE [LAMA2_Y1258], the enrichment score was inactive: 1.71.
Still for that read-out and setting: the same measure for LKFAIYFEARE [LAMA2_Y1258_YF]: inactive: 2.8; for EKKQTYGSCRK [LACTB_Y473_R469K]: inactive: 1.09; for QEIATCRRLLE [KRT14_Y415_Y415C]: inactive: 0.444.
For the molecule LESETYRRLLD [KRT12_Y429_I426S], the enrichment score was inactive: 0.775.
Regarding TMEDSYRKQVV [KRAS_Y40_I36M], the enrichment score was inactive: 0.734.
On to AYGGGYGGVLT [KRT19_Y65], for which the enrichment score is inactive: 0.657.
On the same count and under the same terms, the same measure for LLANAYIYDVQ [L1CAM_Y418_V421D]: inactive: 1.32; for SSSGAYGGGYG [KRT19_Y61]: inactive: 0.431.
For the molecule TGQEEYSAMRD [KRAS_Y64_A59T], the enrichment score is inactive: 0.346.

The target of another test is SHP2 N-SH2 domain T42A. The description is as above. Particulars: peptide library: pTyr-Var.
STFVPYEIKVQ [L1CAM_Y784]: the enrichment score was inactive: 0.816.
For the molecule TQTPPYVKKHR [LARP1B_Y457_P462R], the enrichment score is inactive: 0.947.
For LLANAYIYVVQ [L1CAM_Y418], the enrichment score was inactive: 1.17.
Regarding RLEPVYFVAPA [LAMC2_Y250_D247E], the enrichment score was inactive: 1.02.
On the same count and under the same terms, the same measure for RMLREYQELMS [KRT74_Y425]: inactive: 0.81; for DRLASYLDKVP [KRT14_Y129_R134P]: inactive: 0.718; for EAESWYQTKYE [KRT75_Y342]: inactive: 0.75.
Consider GGMTEYELVVV [KRAS_Y4_K5E], for which the enrichment score is inactive: 0.654.
The same measure, in the same setting: for LKYAIYFEARE [LAMA2_Y1258] the value was inactive: 1.21; for LKFAIYFEARE [LAMA2_Y1258_YF], active: 4.06; for EKKQTYGSCRK [LACTB_Y473_R469K], inactive: 1.33.
Same read-out and setting: the same measure for QEIATCRRLLE [KRT14_Y415_Y415C]: inactive: 0.319; for LESETYRRLLD [KRT12_Y429_I426S]: inactive: 0.612.
Take TMEDSYRKQVV [KRAS_Y40_I36M]: the enrichment score was inactive: 0.369.
As to AYGGGYGGVLT [KRT19_Y65], the enrichment score was inactive: 0.591.
Same read-out and setting: the same measure for LLANAYIYDVQ [L1CAM_Y418_V421D]: inactive: 1.07; for SSSGAYGGGYG [KRT19_Y61]: inactive: 0.385; for TGQEEYSAMRD [KRAS_Y64_A59T]: inactive: 0.397.

The target of another test is SHP2 N-SH2 domain T52S. The test is described as above. Particulars: peptide library: pTyr-Var.
For STFVPYEIKVQ [L1CAM_Y784], the enrichment score is inactive: 0.904.
Regarding TQTPPYVKKHR [LARP1B_Y457_P462R], the enrichment score was inactive: 1.09.
Turning to LLANAYIYVVQ [L1CAM_Y418], the enrichment score was inactive: 1.19.
Take RLEPVYFVAPA [LAMC2_Y250_D247E]: the enrichment score was inactive: 1.12.
As for RMLREYQELMS [KRT74_Y425], the enrichment score was inactive: 0.754.
The same measure, in the same setting: for DRLASYLDKVP [KRT14_Y129_R134P] the value was inactive: 0.762; for EAESWYQTKYE [KRT75_Y342], inactive: 0.825; for GGMTEYELVVV [KRAS_Y4_K5E], inactive: 1.05.
Turning to LKYAIYFEARE [LAMA2_Y1258], the enrichment score is inactive: 1.22.
Consider LKFAIYFEARE [LAMA2_Y1258_YF], for which the enrichment score was active: 3.72.
In the case of EKKQTYGSCRK [LACTB_Y473_R469K], the enrichment score was inactive: 1.35.
For the molecule QEIATCRRLLE [KRT14_Y415_Y415C], the enrichment score was inactive: 0.29.
In the case of LESETYRRLLD [KRT12_Y429_I426S], the enrichment score is inactive: 0.796.
With TMEDSYRKQVV [KRAS_Y40_I36M], the enrichment score is inactive: 0.473.
AYGGGYGGVLT [KRT19_Y65]: the enrichment score is inactive: 0.622.
In the case of LLANAYIYDVQ [L1CAM_Y418_V421D], the enrichment score is inactive: 0.931.
Consider SSSGAYGGGYG [KRT19_Y61], for which the enrichment score was inactive: 0.402.
For the molecule TGQEEYSAMRD [KRAS_Y64_A59T], the enrichment score was inactive: 0.353.

In a further test the target is SHP2 N-SH2 domain wild-type. The description is as above. Particulars: peptide library: pTyr-Var.
As for STFVPYEIKVQ [L1CAM_Y784], the enrichment score was inactive: 1.21.
Consider TQTPPYVKKHR [LARP1B_Y457_P462R], for which the enrichment score was inactive: 1.04.
With LLANAYIYVVQ [L1CAM_Y418], the enrichment score is inactive: 1.53.
For RLEPVYFVAPA [LAMC2_Y250_D247E], the enrichment score was inactive: 1.03.
Take RMLREYQELMS [KRT74_Y425]: the enrichment score was inactive: 0.972.
Consider DRLASYLDKVP [KRT14_Y129_R134P], for which the enrichment score is inactive: 0.979.
Regarding EAESWYQTKYE [KRT75_Y342], the enrichment score was inactive: 0.842.
For GGMTEYELVVV [KRAS_Y4_K5E], the enrichment score was inactive: 0.981.
Turning to LKYAIYFEARE [LAMA2_Y1258], the enrichment score is inactive: 2.3.
Take LKFAIYFEARE [LAMA2_Y1258_YF]: the enrichment score was active: 5.02.
Turning to EKKQTYGSCRK [LACTB_Y473_R469K], the enrichment score is inactive: 1.21.
Consider QEIATCRRLLE [KRT14_Y415_Y415C], for which the enrichment score is inactive: 0.397.
As to LESETYRRLLD [KRT12_Y429_I426S], the enrichment score is inactive: 0.625.
Same read-out and setting: the same measure for TMEDSYRKQVV [KRAS_Y40_I36M]: inactive: 0.546; for AYGGGYGGVLT [KRT19_Y65]: inactive: 0.817; for LLANAYIYDVQ [L1CAM_Y418_V421D]: inactive: 1.13.
On to SSSGAYGGGYG [KRT19_Y61], for which the enrichment score is inactive: 0.546.
Regarding TGQEEYSAMRD [KRAS_Y64_A59T], the enrichment score was inactive: 0.508.
